In PubChem BioAssay AID1460 (National Center for Advancing Translational Sciences (NCATS), 2008):
Among all 270,000 compounds or so, about 5,800 (2.1%) were called active. Inconclusive means that the source gave no clear call. Such entries were picked first, then a sample of the others. The call rests on the fitted dose curve; in most records, active means well fitted inhibition curve with a large enough effect; inconclusive means small, poorly fitted or top-dose-only effect; inactive means flat fitted curve, though single readings scatter. Potencies beside an inconclusive call are fits to weak or partial responses and may not hold up.
Further: nearly all actives have a fitted effect of over 55% in size.
On the % scale 0 is the no-effect control and ±100 the full control effect; potency means the concentration at half of the fitted maximal effect; tags describe the fitted curve by direction and shape.

These compounds were tested against Microtubule-associated protein tau (Homo sapiens) (UniProt P10636) (assay: qHTS for Inhibitors of Tau Fibril Formation, Thioflavin T Binding). Conditions: recombinant tau K18 P301L (four-repeat tau fragment), heparin-induced fibrillization, ThT fluorescence; series mostly up to 57.4 µM; activity, negative = inhibition: at the top concentration.
Sequence of UniProt P10636 (P10636 whole entry, looked up, the tested form may be a part): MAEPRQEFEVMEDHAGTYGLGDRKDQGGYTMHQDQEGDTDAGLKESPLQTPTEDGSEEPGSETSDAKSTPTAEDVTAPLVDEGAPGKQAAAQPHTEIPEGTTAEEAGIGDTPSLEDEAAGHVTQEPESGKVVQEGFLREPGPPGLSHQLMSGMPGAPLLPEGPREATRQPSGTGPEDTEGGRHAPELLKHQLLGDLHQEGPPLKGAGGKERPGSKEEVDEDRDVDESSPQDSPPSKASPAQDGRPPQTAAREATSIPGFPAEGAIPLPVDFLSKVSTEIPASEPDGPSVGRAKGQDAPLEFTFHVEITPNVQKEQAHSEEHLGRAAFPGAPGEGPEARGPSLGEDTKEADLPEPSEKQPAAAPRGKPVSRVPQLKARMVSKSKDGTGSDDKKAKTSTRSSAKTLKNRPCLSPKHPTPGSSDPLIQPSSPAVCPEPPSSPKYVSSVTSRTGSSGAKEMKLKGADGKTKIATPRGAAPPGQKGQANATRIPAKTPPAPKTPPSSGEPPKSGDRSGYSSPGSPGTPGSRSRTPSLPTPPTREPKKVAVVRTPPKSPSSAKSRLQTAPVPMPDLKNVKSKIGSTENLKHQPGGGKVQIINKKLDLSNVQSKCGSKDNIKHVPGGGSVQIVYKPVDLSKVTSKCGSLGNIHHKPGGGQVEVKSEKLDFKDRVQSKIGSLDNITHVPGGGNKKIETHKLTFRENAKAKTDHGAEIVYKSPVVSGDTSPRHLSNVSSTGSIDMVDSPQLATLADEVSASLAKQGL
Method in brief: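 Heparin-induced (20 uM) aggregation of recombinant human K18 P301L tau, 15 uM unlabeled with 0.24 uM labeled, pH 7 acetate buffer, 6 hr at 37 C with compound. Fibrils quantified by 30 uM ThT fluorescence after 1 hr ambient incubation.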
`O=C(N/N=C/C=C/c1ccccc1)c1cc2c(ccc3ccccc32)o1` was tested, and the Potency was inconclusive: 0.891 µM [inhibitor, full curve].
In the case of `CCC1CCc2nc3sc(C(=O)Nc4cccc(C(F)(F)F)c4)c(N)c3cc2C1` (stereo unspecified), the Potency is reported as inconclusive: 2.82 µM [inhibitor, full curve].
For `O=C(C1c2ccccc2C(=O)N2CCc3ccccc3C12)N1CCN(Cc2ccccc2)CC1` (stereo unspecified), the Potency was inconclusive: 35.5 µM [inhibitor, partial curve].
With `OC(CN1CCN(c2ccccc2)CC1)c1c[nH]c2ccccc12` (stereo unspecified) the Potency was inconclusive: 10 µM [inhibitor, partial curve].
In the case of `O=C(c1ccco1)N1CCN(CC(O)COc2ccc3oc4ccccc4c3c2)CC1` (stereo unspecified), the Potency is reported as inconclusive: 5.01 µM [inhibitor, partial curve].
In the case of `COc1ccc(CCNC(=O)CC2SC(N)=NC2=O)cc1OC` (stereo unspecified), the “activity, negative = inhibition” value is reported as inactive: -3.58%.
With `O=C(O)c1cc2ccccc2cc1Nc1ccccc1` the Potency was inconclusive: 10 µM [inhibitor, partial curve].
In the case of `CCn1c2ccccc2c2cc(NC(=O)CSc3nnc(-c4cccc(C)c4)o3)ccc21`, the Potency is reported as inconclusive: 7.94 µM [inhibitor, partial curve].
In the case of `COc1ccc(NC(=O)NC23CC4(C)CC(C)(CC(C)(C4)C2)C3)cc1OC`, the Potency is reported as inconclusive: 11.2 µM [inhibitor, partial curve].
In the case of `CCCN(CCC)CCNC(=O)c1cc2c(=O)n(C)c3ccccc3c2n1C`, the Potency is reported as inconclusive: 6.31 µM [inhibitor, partial curve].
In the case of `COCCNC(=O)c1ccc2c(=O)n(CCOC)c(SCC(=O)c3c[nH]c4ccccc34)nc2c1`, the “activity, negative = inhibition” value is reported as inactive: -2.04%.
In the case of `O=C(OCC(=O)N1CCN(C(=O)c2ccco2)CC1)c1cc(-c2ccc(F)cc2)nc2ccccc12`, the Potency is reported as inconclusive: 12.6 µM [inhibitor, partial curve].
In the case of `Cc1nc(N=Nc2cc(S(=O)(=O)O)ccc2S(=O)(=O)O)c(COP(=O)(O)O)c(C=O)c1O`, the Potency is reported as inconclusive: 35.5 µM [inhibitor, single point].
With `C=CC[C@@H]1C=C[C@@H](O/N=C\[C@@H](NS(=O)(=O)c2ccc(C)cc2)[C@H](C)/C=C\CC(=O)OC)[C@@H](CO)O1` the activity, negative = inhibition was inactive: -1.01% [at 11.5 µM].
For `OC1(c2ccccc2)CN(c2ccccc2)C2=[N+]1CCS2` (stereo unspecified), the Potency was inconclusive: 39.8 µM [inhibitor, single point].
With `Cc1nnc(-c2ccc(Oc3ccc(Cl)cc3)c([N+](=O)[O-])c2)o1` the “activity, negative = inhibition” value was inactive: -7.9%.
For `CC1(C)CC(=O)C(N=Nc2ccc(C(F)(F)F)cc2[N+](=O)[O-])=C(O)C1`, the Potency was inconclusive: 39.8 µM [inhibitor, single point].
`N#Cc1nccnc1S(=O)(=O)c1cccs1` was tested, and the Potency was inconclusive: 3.55 µM [inhibitor, partial curve].
`O=C(COC(=O)CCc1nc2ccccc2s1)Nc1ccc(Cl)cn1` was tested, and the Potency was inconclusive: 12.6 µM [inhibitor, partial curve].
`COc1ccccc1N(C)S(=O)(=O)c1ccc(C(=O)NC2=NCCS2)cc1` was tested, and the “activity, negative = inhibition” value was inactive: -14.5%.
For `O=C(/C=C/c1ccoc1)c1ccccc1O`, the Potency was inconclusive: 31.6 µM [inhibitor, single point].
For `COc1ccc(N2CCN(C(=O)CSc3ccc(C)cc3)CC2)cc1`, the Potency was inconclusive: 7.08 µM [inhibitor, partial curve, poor fit].
In the case of `Cc1cc(NCc2ccccn2)n2nc(C)c(-c3ccccc3)c2n1`, the Potency is reported as inconclusive: 20 µM [inhibitor, partial curve, poor fit].
`COc1cccc(CNS(=O)(=O)c2ccc(-c3cc(C(F)(F)F)on3)s2)c1` was tested, and the “activity, negative = inhibition” value was inactive: -3.31%.
`CCOC(=O)c1ccc(N2C(=O)Cc3cc(OCC)c(OCC)cc3C2c2ccccc2)cc1` (stereo unspecified) was tested, and the Potency was inconclusive: 28.2 µM [inhibitor, single point].
For `CCOc1ccc(C(=O)Nc2ccc3oc(-c4ccc(Br)cc4)nc3c2)cc1`, the “activity, negative = inhibition” value was inactive: -18.3%.
In the case of `O=[N+]([O-])c1cccc(N2Cc3ccccc3C2)c1`, the Potency is reported as active: 15.8 µM.
For `Cc1csc2c(N3CCN(C(=O)Nc4ccc(OC(F)(F)F)cc4)CC3)ncnc12`, the Potency was inconclusive: 31.6 µM [inhibitor, partial curve, poor fit].
With `Cn1c(SCc2ccccc2Cl)nc2c([nH]c3ccccc32)c1=O` the “activity, negative = inhibition” value was inactive: -7.09%.
With `CCn1c(CCNC(=O)c2ccc(Cl)c(Cl)c2)nnc1SCCOc1ccc(OC)cc1` the Potency was inconclusive: 17.8 µM [inhibitor, partial curve].
In the case of `CCc1ccc(-c2cn3c(n2)SCC3)cc1`, the Potency is reported as inconclusive: 12.6 µM [inhibitor, partial curve].
`C=CCOC(=O)C(C#N)c1nc2ccccc2nc1N1CCCC1` (stereo unspecified) was tested, and the Potency was inconclusive: 25.1 µM [inhibitor, partial curve].
In the case of `O=C(O)c1cc(Br)ccn1`, the “activity, negative = inhibition” value is reported as inactive: 0.947%.
`COc1cc(C(=S)N2CCN(c3cccc(Cl)c3)CC2)ccc1O` was tested, and the Potency was inconclusive: 35.5 µM [inhibitor, single point].
In the case of `CC1=NC(=O)C(N=Nc2cccc(O)c2)N1c1ccccc1` (stereo unspecified), the Potency is reported as active: 5.01 µM.
In the case of `COc1cc2c(cc1OC)C1C(=O)c3c(O)cc4c(c3OC1CO2)C=CC(C)(C)O4` (stereo unspecified), the Potency is reported as inconclusive: 12.6 µM [inhibitor, partial curve].
For `Cn1c(-[n+]2c(-c3ccccc3)cc(-c3ccccc3)cc2-c2ccccc2)nc2c([N+](=O)[O-])cccc21`, the Potency was inconclusive: 22.4 µM [inhibitor, partial curve, poor fit].
For `CC(C)Cn1c(N)c(C(=O)CCl)c(=O)n(C)c1=O`, the “activity, negative = inhibition” value was inactive: 2.02%.
For `Cc1ccc(OCC(=O)N/N=C\c2ccc(-c3cccc(C(=O)O)c3)o2)c(C)c1`, the Potency was active: 7.94 µM.
For `C=CCN=c1scc(-c2ccccc2)n1/N=C/c1ccccn1`, the Potency was inconclusive: 15.8 µM [inhibitor, partial curve].
With `CCC(C)NC(=O)c1ccc(CS(=O)(=O)Cc2ccc(Cl)cc2)o1` (stereo unspecified) the “activity, negative = inhibition” value was inactive: -13.9%.
In the case of `Cc1cc(C)n(CCC(=O)N/N=C/c2ccccc2O)n1`, the “activity, negative = inhibition” value is reported as inactive: -1.39%.
`Cc1ccccc1C(=O)OCc1cc(=O)n2c(C)csc2n1` was tested, and the Potency was inconclusive: 4.47 µM [inhibitor, full curve].
With `CCCN1C(=O)/C(=C/c2ccc(C)o2)SC1=Nc1ccc(OCC)cc1` the Potency was inconclusive: 20 µM [inhibitor, partial curve].
With `N[C@H](CC(=O)O)C(=O)O` the Potency was “inactive”.
`Cc1ccc(CCNC(=O)c2ccc(CNS(=O)(=O)c3ccccc3)cc2)cc1` was tested, and the Potency was inconclusive: 0.891 µM [inhibitor, partial curve, poor fit].
For `O=C(Nc1ccc([N+](=O)[O-])cc1Br)c1cccnc1`, the Potency was inconclusive: 22.4 µM [inhibitor, partial curve].
`N#CCCn1c(SCC(=O)NCc2ccco2)nc2ccccc21` was tested, and the Potency was inconclusive: 39.8 µM [inhibitor, single point].
For `CCOC(=O)c1sc(N)c(C(N)=O)c1C`, the “activity, negative = inhibition” value was inactive: -9.11%.
`Cc1cc(C)n(CC(=O)N/N=C/c2c[nH]c3ccccc23)n1` was tested, and the Potency was inconclusive: 25.1 µM [inhibitor, partial curve, poor fit].
`CCCN(C(=O)COc1cc(=O)n(CC)c2ccccc12)c1ccc(C(C)C)cc1` was tested, and the Potency was inconclusive: 35.5 µM [inhibitor, single point].
With `COc1ccc(S(=O)(=O)N2CCOCC2)cc1N=Nc1sc(N)nc1-c1ccccc1` the Potency was inconclusive: 1.41 µM [inhibitor, full curve].
For `COc1ccc2[nH]c(C)c(CCNC(=S)Nc3ccccc3C)c2c1`, the Potency was inconclusive: 20 µM [inhibitor, partial curve].
`Cc1cc(-c2nsc(=O)o2)c(S(C)(=O)=O)s1` was tested, and the Potency was active: 31.6 µM.
With `Clc1ccc(CSc2cc3c(nn2)-c2ccccc2CC3)cc1` the Potency was inconclusive: 5.01 µM [inhibitor, full curve].
In the case of `Cc1ccc(NC(=S)NCC(C)C)cc1`, the “activity, negative = inhibition” value is reported as inactive: 9.67%.
`CCc1ccc(-n2c(SCc3ccccc3C)nc3[nH]ncc3c2=O)cc1` was tested, and the “activity, negative = inhibition” value was inactive: -13.9%.
With `CCOc1ccc(/C=C2\SC(=S)N(NS(=O)(=O)c3ccc(C)cc3)C2=O)cc1OC` the Potency was inconclusive: 15.8 µM [inhibitor, partial curve].
`O=C(C1=C[C@@H](c2ccc(Br)cc2)C[C@@H](OCCCCO)O1)N1CCN(Cc2ccc3c(c2)OCO3)CC1` was tested, and the Potency was inconclusive: 35.5 µM [inhibitor, single point].
`OC1(c2ccccc2)c2ccccc2-c2ncccc21` (stereo unspecified) was tested, and the “activity, negative = inhibition” value was inactive: 10.8%.
In the case of `CCN(C(=O)c1cc2ccccc2oc1=O)c1cccc(C)c1`, the “activity, negative = inhibition” value is reported as inactive: 2.89%.
In the case of `COc1ccc(-c2csc(Nc3ccc(C)cn3)n2)cc1OC`, the Potency is reported as active: 12.6 µM.
With `O=C(NC1CC2CCC1C2)C1COc2ccccc2O1` (stereo unspecified) the “activity, negative = inhibition” value was inactive: 3.95%.
`COc1cccc2cc(-c3csc(-c4ccc(Cl)cc4)n3)c(=O)oc12` was tested, and the “activity, negative = inhibition” value was inactive: 2.64%.
For `COc1cccc(Cn2c(SCC(=O)N(C)c3ccccc3)nc3ccccc32)c1`, the Potency was inconclusive: 39.8 µM [inhibitor, single point].
In the case of `COCCNC(=O)C(=O)NNC(=O)COc1ccc(OC)cc1`, the “activity, negative = inhibition” value is reported as inactive: -0.638%.
In the case of `Nc1nc(Nc2ccccc2F)nc(NCc2ccco2)c1[N+](=O)[O-]`, the Potency is reported as inconclusive: 28.2 µM [inhibitor, single point].
`O=C(CSc1nc2cccnc2n1Cc1ccccc1)NCc1ccco1` was tested, and the “activity, negative = inhibition” value was inactive: -9.16%.
`O=C(Nc1ccc(C(F)(F)F)cc1)C1CCN(c2cnccn2)CC1` was tested, and the Potency was inconclusive: 15.8 µM [inhibitor, partial curve].
`COC(=O)c1ccc(COc2cccc(C)c2C)cc1` was tested, and the Potency was inconclusive: 7.08 µM [inhibitor, partial curve].
`O=C(Nc1cccnc1)c1ccc(NS(=O)(=O)c2cc([N+](=O)[O-])ccc2Cl)cc1` was tested, and the Potency was inconclusive: 10 µM [inhibitor, partial curve].
